Reference: the supplement of paper PMC7335073
Whole data set: some 4,100 sequences, median “relative CpG methylation activity (normalised to average over all NNNCGNNN flanks)” near 0.87, cut for the highest 2% near 2.4. Some of the results follow.

Target: DNMT3A catalytic domain (mouse) (UniProt O88508)
Test: relative CpG methylation activity (normalised to average over all NNNCGNNN flanks) (relative (1 = mean)); higher = more methylation of the central CpG
Conditions: system: in vitro, murine catalytic domain; CpG state: hemimethylated substrate pool; residues: 608-908
Procedure: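 Deep enzymology: a pool of dsDNA substrates with a central CpG flanked by 10 random nucleotides on each side was methylated by the murine DNMT3A or DNMT3B catalytic domain (0.8 mM SAM, 37 °C, 60 min). Methylation was then read out by hairpin ligation, bisulfite conversion and NGS. Values are the average methylation of each NNNCGNNN context (±3 flanks; the outer flanks are random and averaged over), normalised to the overall mean, so 1 = average activity.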

Sequence | relative CpG methylation activity
GGGCGGTG | 0.385
CTACGTGC | 1.34
TCACGCCC | 2.31
GGCCGTCT | 1.4
GTCCGTGA | 0.951
GGTCGGTA | 0.461
CGTCGCGA | 0.595
GCGCGTCT | 1.14
GCGCGGAG | 0.455
TATCGGAA | 0.431
TCTCGCGC | 1.27
TCTCGCGT | 1.42
TTCCGAAA | 2.05
AGACGGGT | 0.529
GCTCGAGT | 0.789
TTTCGACG | 0.935
CGACGGCT | 0.427
AAGCGCCC | 1.53
GTACGAAA | 1.64
ACGCGCGA | 0.617
TCTCGTGA | 0.842
TATCGTTA | 0.458
CGACGTAA | 0.865
ACTCGGTC | 1.25

Sequence | relative CpG methylation activity
GGACGTGT | 0.375
AGGCGTTT | 0.588
ATGCGTTA | 1.52
ATACGGAG | 0.805
TCCCGTCT | 1.64
CCGCGCTC | 1.75
AATCGAGA | 0.236
TGGCGTAC | 0.55
ATGCGAAC | 1.66
TTTCGCAA | 1.42
GTACGCGG | 0.656
ATGCGCGT | 1.13
CATCGGTA | 0.64
TTCCGGTT | 1.33
AAACGGAT | 0.45
CGACGCCA | 1.29
CCGCGAAG | 0.395
GCACGATC | 1.84
GAACGCCG | 1.42
TTCCGGGT | 1.16
CGACGAGT | 0.625
TGACGGGG | 0.274
GTCCGCTT | 2.54
GTACGGGA | 1.06

Sequence | relative CpG methylation activity
AAACGCGG | 0.329
CTACGAGG | 0.826
GCCCGCCT | 2.17
CAGCGTCC | 0.828
TTTCGACC | 1.36
CGGCGTGG | 0.025
ACACGACC | 1.72
GGACGTAG | 0.18
GACCGTAG | 0.224
AAGCGTAA | 0.854
CTTCGGCA | 0.902
TCTCGGGG | 0.769
TATCGTAG | 0.465
GGTCGGGA | 0.149
AAGCGCTC | 1.63
ATTCGGTG | 0.625
TTCCGGAA | 1.68
TTTCGCCT | 2.24
GGTCGCGT | 0.426
AGCCGTGT | 0.263
AACCGCCT | 1.76
GCACGCCG | 1.62
TCCCGCGG | 0.476
CGGCGCCG | 1.36

Sequence | relative CpG methylation activity
ATTCGTGG | 0.174
CTGCGGGA | 0.764
CCTCGGCT | 1.42
GACCGTGT | 0.446
ACGCGTCA | 1.45
AGTCGGAT | 0.139
AGTCGCCC | 1.53
CGGCGTCC | 0.973
AAACGAAC | 0.818
CACCGTAT | 0.323
TTGCGGTA | 1.17
CGTCGGCT | 0.823
TACCGGGT | 0.598
GCACGGGT | 0.759
AGTCGAGC | 0.94
GTGCGCGG | 0.547
ACGCGCTT | 1.83
GGTCGGGT | 0.27
TGACGAAG | 0.412
CGTCGGGC | 0.746
TAGCGTAT | 0.297
GATCGGGG | 0.159
